Source: ChEMBL document CHEMBL4888484, “Replenishing the malaria drug discovery pipeline: Screening and hit evaluation of the MMV Hit Generation Library 1 (HGL1) against asexual blood stage Plasmodium falciparum ,using a nano luciferase reporter read-out” (2022)
Out of some 150,000 compounds screened, about 540 (0.36%) showed an effect of 50% or more. The list shows a part of the results.

test system: Plasmodium falciparum; experiment: Primary screen in NF54 nanoGlo assay, in single point, at 2uM, 72h; a lower Z score goes with more inhibition; format: functional, Erythrocyte; settings: timepoint 72 hour

Compound	% Inhibition [%]	Z score
COCc1nc(N2CC[C@H](O)C2)c2c(-c3ccccc3)csc2n1	-4	0.42
COc1ccc(NC(=O)c2sc(-n3nc(C)cc3C)nc2C)c(OC)c1	-11	0.96
Cn1nnc(C(=O)N2CCC(c3ccccc3)(N3CCCC3)CC2)n1	7	-1.29
CN(CC(C)(CO)CO)c1ncc(-c2ccccc2)s1	37	-4.72
CC1CC1C(=O)Nc1cc(C(F)(F)F)n[nH]1 (configuration not stated)	-25	4.06
CC(c1ccccn1)N(C)CC(O)c1ccc(F)cn1 (configuration not stated)	-2	0.3
CCCOCC(=O)N[C@H]1CN(Cc2[nH]nc(C)c2Cl)C[C@@H]1C1CC1	4	-0.51
CC(C)c1nnc2c(NC[C@@H](C)CC(F)(F)F)nccn12	1	-0.14
CN1CCC(NC(=O)C2(O)CCCCC2)C1c1ccc(Cl)cc1 (configuration not stated)	-17	1.69
Cc1c(CN2CC[C@H](C3CCCCC3)C2)cnn1C	-8	1.31
C[C@H](NC(=O)c1ccc(-c2ncon2)cc1)C1CCN(CC(F)(F)F)CC1	4	-0.58
Cc1cc(Cl)c2ncc(C#N)c(N3CC[S+]([O-])CC(C)C3)c2c1 (configuration not stated)	-10	0.89
CC(O)CN1CCN(C(=O)c2ccc(-c3ccccc3)[nH]2)C(C)C1 (configuration not stated)	-4	0.5
O=C(c1csc(S(=O)(=O)NCc2cccs2)c1)N1CCCC1	-11	1.14
CC(C)c1nnc(N2CCC(NC(=O)c3ccccc3)CC2)o1	-11	2.01
CCC(CC)(CNC(=O)c1coc(C2CCOCC2)n1)OC	-2	0.41
O=C(NCCNC1=NS(=O)(=O)c2ccccc21)c1ccco1	-11	1.4
Cc1cccc(OCc2nc(C)c(C(=O)N[C@@H](C)c3cccs3)s2)c1	-29	2.55
CCS(=O)(=O)N1CCN(C(=O)[C@@H](O)COc2ccccc2C)CC1	-3	0.38
O=C(Cn1cc(Br)cn1)N[C@@H]1Cc2ccccc2[C@H]1O	0	-0.08
COC(=O)C1=C(c2ccccc2)S/C(=C2/C(=S)C(C)(C)N(C(C)=O)c3ccccc32)S1	-10	1.3
CCC(CO)N1CCN(S(=O)(=O)C(C)CC(C)C)CC1 (configuration not stated)	-6	0.86

Compound	% Inhibition [%]	Z score
CC(C)C1N(C(=O)c2ccc(C(=O)N3CC(C)(C)C3C(C)C)nc2)CC1(C)C (configuration not stated)	-4	0.39
Cc1occc1C(=O)Nc1cccc(N2CCCC2=O)c1	5	-0.53
C#CCN(CC#CC)Cc1nnc(C)o1	-18	2.16
C[C@@H](C(=O)Nc1ccc2c(c1)OCCO2)S(=O)(=O)Cc1nc(Cc2ccccc2)no1	-4	0.6
C[C@H]1CCCCN1S(=O)(=O)c1ccc2c(cnc(=O)n2CC(=O)NCCc2ccccc2)c1	27	-3.03
Cc1ncoc1C(=O)N1CC2(C[C@@H](c3nc(-c4ccncc4)no3)N(C)C2)C1	7	-1.07
CC(=O)NC1CN(C(=O)N[C@@H](Cc2ccccc2)c2cccs2)C1	-10	1.78
C[C@@](O)(CNC(=O)c1ccno1)Cc1ccsc1	-22	3.23
COc1cc(C)ccc1OCCON1C(=O)CCC1=O	-2	0.3
C[C@@H](CNCC(C)(C)NS(C)(=O)=O)c1ccc(F)cc1	-16	1.44
COc1ccccc1CCNC(=O)c1cccc(-n2ccnn2)c1	32	-3.64
Cc1[nH]c2ccccc2c1C1CCN(C(=O)c2ccccc2Br)CC1	32	-0.57
COCCN1CCN(c2nc(-c3cccc(OC)c3)c3c(N)n(C)nc3n2)CC1	-3	0.32
CCOc1ccc(C(=O)NCC(=O)N2CCOCC[C@@H]2C)cc1	-5	0.87
NC(=O)CCn1cc(CNCCc2ccncc2)c2ccccc21	-22	2.8
CC(=O)Nc1ccc2c(c1)OCCOCCOc1ccc(NC(C)=O)cc1OCCO2	-8	1.09
Nc1nnc([C@@H]2CCOc3ccccc32)s1	1	-0.15
C[C@H]1CCCCN1C(=O)c1csc(=O)[nH]1	-3	0.35
COc1ccnc(N(C)C2CCCCC2)n1	7	-0.58
O=C(c1cc(C2CC2)on1)N1CC(n2ccnn2)C1	0	-0.02
Cc1cc(C(F)(F)F)n(C[C@@H](C)CNc2nnc(C)o2)n1	-31	2.72
C#CC(C)(C)N(C)S(=O)(=O)c1ccccc1OC(F)F	0	-0.04

Compound	% Inhibition [%]	Z score
COc1ccc(CN2CCNC(=O)[C@@H]2CC(=O)N2CCCC2)c(F)c1	-10	1.73
COC(=O)C1CCN2C(=O)N(c3ccc(OCC(F)(F)F)cc3)C(=O)C2C1 (configuration not stated)	-1	0.11
Cc1cc(C)c2c3ccccc3n(CCNC(=O)C(C)(C)C)c2n1	27	-3.05
C[C@H]1COCCN1C(=O)NCc1ccc2c(c1)COC2	-2	0.3
Cc1ccc(-c2cc(CN(Cc3ccco3)C(=O)c3ccco3)no2)c(C)c1	4	-0.52
CCc1ccc(C(=O)N2CCC(CN3CCN(C)C[C@@H]3C)CC2)cc1	-12	1.34
O=C(NCc1ccccn1)N(CCO)CCOCC(F)(F)F	-2	0.43
COc1ccc2c(c1)CCN2C(=O)C1CCCC(C(=O)O)C1 (configuration not stated)	-13	1.82
CCS(=O)(=O)N1CCC[C@H](C(=O)Nc2cnn3ccccc23)C1	-8	1.07
O=C(Nc1cccc(Cl)c1)c1ccc(Nc2ccnc(-c3ccc(F)cc3)n2)cc1	11	-1.63
CC1(C)CN(c2nnc([C@@H]3COCCO3)n2Cc2cccs2)CC(C)(C)O1	-3	0.58
O=C1C[C@H](NCc2ncc[nH]2)CN1c1ccccc1	-6	0.88
CN(C)c1cnn(CC(=O)NCCc2nccs2)c(=O)c1	-5	0.82
CC(C)(C)OC(=O)N1CCC(OCc2cccc(Br)c2)CC1	-15	2.45
Cn1cccc1CCNC(=O)c1ccc(F)cc1	31	-3.95
Cc1c(C(=O)N2CCOCC2)c(C(F)(F)F)nn1C1CCN(C)CC1	-7	1.33
N#Cc1cccc(C2NC(=O)C3C4CCCC4CN23)c1 (configuration not stated)	-7	1.18
Cc1nc(CN2CCN(C(=O)CC(C)C)[C@H]3CS(=O)(=O)C[C@H]32)co1	-23	2.3
Cc1ncsc1C(=O)N[C@H]1CCN(c2ccc(Cl)cc2)C1	2	-0.25
O=C(NCC1CC1)[C@@H]1CCCCC(=O)N1Cc1ccccc1	-6	0.92
COC(=O)CNC(=O)C1CCCC(C(=O)NCC(=O)OC)C1 (configuration not stated)	-36	4.21
CC12CC(CN1C(=O)NCC1CCN(Cc3ccncc3)CC1)C2	6	-0.96

Compound	% Inhibition [%]	Z score
COc1ccc(N2C[C@@H](C(=O)N3CCOCC3)CC2=O)cc1	14	-1.86
Cc1noc(CCN2C(=O)c3ccccc3C2=O)n1	-5	0.55
CN(C)c1ccc(NC(=O)c2cccnc2O)cn1	-20	3.06
NC(=O)[C@@H]1CCCN1c1ccc(-c2nc(-c3ccccc3F)no2)cn1	10	-1.32
Cn1ccnc1CNC(=O)NCCCc1ccc(Cl)cc1Cl	10	-1.33
CCC(CC)n1ncc(C)c1NC(=O)[C@H]1C(C)=C1c1ccccc1	-6	1.24
Cc1ccnc(-c2noc(-c3ncccc3S(C)(=O)=O)n2)c1	-6	0.81
COc1nn(C)cc1CNC(=O)N[C@@H](C)c1cccc(O)c1	-3	0.61
Cc1c(NC(=O)CCNC(=O)C2CCCC2)cccc1C(=O)N1CCc2sccc2C1	-3	0.54
C[C@@H](C(N)=O)N1CCOCC(F)(F)C1	-14	1.36
C[C@@H](CC(=O)c1ccco1)NC(=O)C1(C#N)CCCC1	33	-3.78
Cc1ccc(C)c(N(C(=O)CCN2CCCS2(=O)=O)C(C)C)c1	-4	0.44
CC(C)(C)C1OCCCC1CNS(N)(=O)=O (configuration not stated)	10	-1.49
COCc1cc(C(=O)Nc2ccc3nc(C)sc3c2)no1	-3	0.47
CC(C)[C@H](NC(=O)Nc1cnnn1C)c1cnn(C)c1	5	-0.57
C[C@H](NC(=O)CCC1CCOCC1)c1ncc(Br)cn1	1	-0.19
COc1ccc(S(=O)(=O)NC[C@H]2Cn3cc(-c4ccc(C)cc4)nc3CO2)cc1	-8	1.03
O=C(CCC(F)(F)F)N1CC[C@@]2(CCCN(CCc3ccccc3)C2)C1	-24	2.16
Cc1ccc(C)c(CN2CC(=O)N(Cc3cccc(C(F)(F)F)c3)c3ccccc3S2(=O)=O)c1	15	-1.71
O=S(=O)(N[C@H]1[C@H](O)[C@H](O)C[C@@H]1c1ccccc1)c1ccccc1	15	-1.71
